# Data taken from the supplement of paper PMC8728848.
# The list shows a part of the results.
# Key:
# Experiment in all cases: glycan array binding signal (z-score within array); higher = stronger binding
# Details in all cases: glycan notation: IUPAC condensed, linker removed
# Gal(a1-3)Gal(b1-3)Glc = target: Gal(a1-3)Gal(b1-3)Glc
# Summary of the method: (§1)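 The binding signal is a Z-score computed within each array and averaged over linkers. Arrays of the same protein sequence at different concentrations or buffers were also averaged together. Data originate from 3228 arrays in the Consortium for Functional Glycomics database, kept only where the protein sequence was available.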
# Gal(a1-3)Gal(b1-3)GlcNAc = target: Gal(a1-3)Gal(b1-3)GlcNAc
# Summary of the method: as §1
# Gal(a1-3)Gal(b1-4)GlcNAc = target: Gal(a1-3)Gal(b1-4)GlcNAc
# Summary of the method: as §1
# [1] = target: Gal(a1-3)Gal(b1-4)[Fuc(a1-3)]GalNAc
# Summary of the method: as §1
# Gal(a1-3)GlcNAc = target: Gal(a1-3)GlcNAc
# Summary of the method: as §1
# [2] = target: Gal(a1-3)[Gal(a1-4)]Gal(b1-4)GlcNAc
# Summary of the method: as §1
# Gal(a1-4)Gal(b1-4)Gal = target: Gal(a1-4)Gal(b1-4)Gal
# Summary of the method: as §1
# Gal(a1-4)Gal(b1-4)GalNAc = target: Gal(a1-4)Gal(b1-4)GalNAc
# Summary of the method: as §1
# Gal(a1-4)GlcNAc = target: Gal(a1-4)GlcNAc
# Summary of the method: as §1
# Gal(a1-6)Glc = target: Gal(a1-6)Glc
# Summary of the method: as §1
# Gal(b1-2)Gal = target: Gal(b1-2)Gal
# Summary of the method: as §1
# Gal(b1-3)Gal = target: Gal(b1-3)Gal
# Summary of the method: as §1
# Gal(b1-3)GalNAc = target: Gal(b1-3)GalNAc
# Summary of the method: as §1
# [3] = target: Gal(b1-3)GalNAc(b1-3)Gal(a1-4)Gal(b1-4)Glc
# Summary of the method: as §1
# [4] = target: Gal(b1-3)GalNAc(b1-3)Gal(b1-4)Glc
# Summary of the method: as §1
# [5] = target: Gal(b1-3)GalNAc(b1-3)Gal(b1-4)GlcNAc
# Summary of the method: as §1
# [6] = target: Gal(b1-3)GalNAc(b1-4)Gal(b1-4)Glc
# Summary of the method: as §1
# [7] = target: Gal(b1-3)GalNAc(b1-4)[Neu5Ac(a2-3)]Gal(b1-4)Glc
# Summary of the method: as §1
# [8] = target: Gal(b1-3)[Fuc(a1-4)]GlcNAc
# Summary of the method: as §1
# [9] = target: Gal(b1-3)[Fuc(a1-4)]GlcNAc(b1-3)Gal(b1-4)GlcNAc
# Summary of the method: as §1
# [10] = target: Gal(b1-3)[Fuc(a1-4)]GlcNAc(b1-3)Gal(b1-4)[Fuc(a1-3)]GlcNAc
# Summary of the method: as §1
# [11] = target: Gal(b1-3)[GlcNAc(b1-6)]GalNAc
# Summary of the method: as §1
# [12] = target: Gal(b1-3)[GlcNAc(b1-6)]GlcNAc
# Summary of the method: as §1
# [13] = target: Gal(b1-3)[Neu5Ac(a2-6)]GalNAc
# Summary of the method: as §1
# [14] = target: Gal(b1-3)[Neu5Ac(a2-6)]GlcNAc
# Summary of the method: as §1
# [15] = target: Gal(b1-3)[Neu5Ac(a2-6)]GlcNAc(a1-4)Gal(b1-4)Glc
# Summary of the method: as §1
# [16] = target: Gal(b1-3)[Neu5Ac(b2-6)]GlcNAc
# Summary of the method: as §1
# [17] = target: Gal(b1-4)GalNAc(a1-3)[Fuc(a1-2)]Gal(b1-4)GlcNAc
# Summary of the method: as §1
# [18] = target: Gal(b1-4)GalNAc(b1-3)[Fuc(a1-2)]Gal(b1-4)GlcNAc
# Summary of the method: as §1
# Gal(b1-4)Glc = target: Gal(b1-4)Glc
# Summary of the method: as §1
# Gal(b1-4)Glc6S = target: Gal(b1-4)Glc6S
# Summary of the method: as §1
# Gal(b1-4)GlcNAc = target: Gal(b1-4)GlcNAc
# Summary of the method: as §1
# [19] = target: Gal(b1-4)GlcNAc(b1-2)Man(a1-3)[Gal(b1-4)GlcNAc(b1-2)Man(a1-6)]Man(b1-4)GlcNAc(b1-4)GlcNAc
# Summary of the method: as §1
# [20] = target: Gal(b1-4)GlcNAc(b1-3)Gal(b1-4)Glc
# Summary of the method: as §1
# [21] = target: Gal(b1-4)GlcNAc(b1-3)Gal(b1-4)GlcNAc
# Summary of the method: as §1
# [22] = target: Gal(b1-4)GlcNAc(b1-3)Gal(b1-4)GlcNAc(b1-3)Gal(b1-4)GlcNAc
# Summary of the method: as §1
# [23] = target: Gal(b1-4)GlcNAc(b1-3)Gal(b1-4)[Fuc(a1-3)]GlcNAc(b1-3)Gal(b1-4)[Fuc(a1-3)]GlcNAc
# Summary of the method: as §1
# [24] = target: Gal(b1-4)GlcNAc(b1-3)GalNAc
# Summary of the method: as §1
binder,measurement,setting,value
7WC (Trifolium repens) (protein) MGTITSYAVVFDAGSTGSRVHVYHFDQNLDLLHIGKDVEFYNKIQPGLSAYADNPEQAAKSLIPLLEQAENVVPEDFHSKTPIRLGATAGLRLLDGDASERILQAVRDMLNNKSTFNVQPDAVSIIDGTQEGSYLWVTINYVLGNLGKRFTNTVGVIDLGGGSVQMAYAVSKKTARNAPKVTDGEDPYIKKIVLKGKPYDLYVHSYLHFGREASRAEILKVTHGSASPCILAGFDGIYTYSGEEFKASAPTSGANFDKCKKIIQKALKLDYPCPYQNCTFGGIWNGGGGSGQKKLFAASSFFYLPQDVGMVDPNKSNLKLRPVDLENKAKIVCTLNVEDVKSAYPLLEKFNIVPYACMDLIYQYELLVDGFGLDPLQEITAGEKIEYQEALVDAAWALGNAVEAVLLLPKFERLMYFVVEHHHHHH,glycan array binding signal (z-score),Gal(a1-3)Gal(b1-3)Glc,-0.298
same,glycan array binding signal (z-score),Gal(a1-3)Gal(b1-3)GlcNAc,-0.197
same,glycan array binding signal (z-score),Gal(a1-3)Gal(b1-4)GlcNAc,-0.476
same,glycan array binding signal (z-score),[1],-0.377
same,glycan array binding signal (z-score),Gal(a1-3)GlcNAc,-0.055
same,glycan array binding signal (z-score),[2],-0.211
same,glycan array binding signal (z-score),Gal(a1-4)Gal(b1-4)Gal,-0.302
same,glycan array binding signal (z-score),Gal(a1-4)Gal(b1-4)GalNAc,-0.213
same,glycan array binding signal (z-score),Gal(a1-4)GlcNAc,-0.077
same,glycan array binding signal (z-score),Gal(a1-6)Glc,0.374
same,glycan array binding signal (z-score),Gal(b1-2)Gal,-0.144
same,glycan array binding signal (z-score),Gal(b1-3)Gal,0.804
same,glycan array binding signal (z-score),Gal(b1-3)GalNAc,0.029
same,glycan array binding signal (z-score),[3],-0.189
same,glycan array binding signal (z-score),[4],-0.241
same,glycan array binding signal (z-score),[5],-0.426
same,glycan array binding signal (z-score),[6],0.286
same,glycan array binding signal (z-score),[7],-0.291
same,glycan array binding signal (z-score),[8],-0.275
same,glycan array binding signal (z-score),[9],-0.357
same,glycan array binding signal (z-score),[10],1.71
same,glycan array binding signal (z-score),[11],0.32
same,glycan array binding signal (z-score),[12],0.87
same,glycan array binding signal (z-score),[13],-0.464
same,glycan array binding signal (z-score),[14],-0.01
same,glycan array binding signal (z-score),[15],-0.059
same,glycan array binding signal (z-score),[16],-0.157
same,glycan array binding signal (z-score),[17],-0.078
same,glycan array binding signal (z-score),[18],-0.202
same,glycan array binding signal (z-score),Gal(b1-4)Glc,0.385
same,glycan array binding signal (z-score),Gal(b1-4)Glc6S,0.697
same,glycan array binding signal (z-score),Gal(b1-4)GlcNAc,-0.357
same,glycan array binding signal (z-score),[19],-0.511
same,glycan array binding signal (z-score),[20],-0.215
same,glycan array binding signal (z-score),[21],-0.467
same,glycan array binding signal (z-score),[22],-0.52
same,glycan array binding signal (z-score),[23],-0.361
same,glycan array binding signal (z-score),[24],-0.394
